# In PMC4336329 (PLoS ONE, 2015):
# Among all 310,000 compounds or so, about 14,000 (4.5%) showed an effect of 50% or more. The effect is printed as a negative number. This is one part of the list.
# Molecular target: human ether-à-go-go-related gene (hERG) potassium channel (human, UniProt Q12809)
# Assay: primary screen, population patch clamp on CHO cells stably expressing hERG
# 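Also: peak tail current of the secondary pulse compared with the same well before compound.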
# human ether-à-go-go-related gene (hERG) potassium channel, sequence (Q12809 whole entry, looked up): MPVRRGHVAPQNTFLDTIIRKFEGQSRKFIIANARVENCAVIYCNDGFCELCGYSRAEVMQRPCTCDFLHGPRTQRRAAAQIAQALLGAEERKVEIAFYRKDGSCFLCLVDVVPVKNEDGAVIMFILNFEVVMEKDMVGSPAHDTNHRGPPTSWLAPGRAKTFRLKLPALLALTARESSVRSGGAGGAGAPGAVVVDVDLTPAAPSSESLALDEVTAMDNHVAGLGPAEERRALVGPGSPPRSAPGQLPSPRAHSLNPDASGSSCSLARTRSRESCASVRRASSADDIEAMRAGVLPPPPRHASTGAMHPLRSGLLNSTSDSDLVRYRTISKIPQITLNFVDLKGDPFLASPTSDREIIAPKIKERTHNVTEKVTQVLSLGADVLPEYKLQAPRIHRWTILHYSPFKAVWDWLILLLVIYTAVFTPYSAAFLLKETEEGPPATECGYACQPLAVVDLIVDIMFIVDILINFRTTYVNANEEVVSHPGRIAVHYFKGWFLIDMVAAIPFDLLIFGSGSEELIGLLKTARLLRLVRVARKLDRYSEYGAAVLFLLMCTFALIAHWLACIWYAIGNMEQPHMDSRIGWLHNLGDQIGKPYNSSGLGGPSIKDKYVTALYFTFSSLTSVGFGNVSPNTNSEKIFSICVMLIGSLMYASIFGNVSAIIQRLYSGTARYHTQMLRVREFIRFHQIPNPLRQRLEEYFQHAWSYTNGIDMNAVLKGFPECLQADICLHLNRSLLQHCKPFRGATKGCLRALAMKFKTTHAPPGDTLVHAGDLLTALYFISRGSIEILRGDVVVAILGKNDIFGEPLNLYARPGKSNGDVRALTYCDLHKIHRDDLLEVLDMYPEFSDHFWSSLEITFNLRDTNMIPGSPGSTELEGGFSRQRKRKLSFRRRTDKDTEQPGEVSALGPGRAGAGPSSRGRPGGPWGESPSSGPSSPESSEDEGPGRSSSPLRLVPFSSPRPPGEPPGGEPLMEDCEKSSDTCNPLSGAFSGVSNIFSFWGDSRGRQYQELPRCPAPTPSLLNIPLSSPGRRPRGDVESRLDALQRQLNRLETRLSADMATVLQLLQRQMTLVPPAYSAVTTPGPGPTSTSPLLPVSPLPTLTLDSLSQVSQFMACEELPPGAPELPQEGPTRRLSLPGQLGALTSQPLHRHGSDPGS
row,Structure (SMILES),"hERG current change (%, negative = inhibition) at 10uM"
1,CCN(CC)CCCCCCCCOC(=O)c1cc(OC)c(OC)c(OC)c1.Cl,-50.1%
2,Cc1cc(C(=O)NC2CCCC(C)C2C)c2ccccc2n1 (stereo not drawn),-5.11%
3,CCOc1cc(C=O)cc(Br)c1OCC(=O)NCCc1ccccc1,-81.7%
4,COc1ccc(C2CC(c3ccccc3O)=NN2c2ccccc2)cc1 (stereo not drawn),15.9%
5,COc1ccc(-n2nnnc2SCC(=O)N2CCOCC2)cc1,9.35%
6,Nc1c(Cl)ncnc1N1CCN(c2ncnc(Cl)c2N)CC1,-13.7%
7,CCC1CCCCN1C(=O)c1ccc([N+](=O)[O-])o1 (stereo not drawn),11.9%
8,Cc1c(C(=O)OCC(=O)NCc2ccco2)cccc1[N+](=O)[O-],-10.9%
9,Cc1nc(C)n(CC(O)COc2ccc3c(c2)CCC3)n1 (stereo not drawn),-0.316%
10,Cc1cccc(NS(=O)(=O)Cc2ccccc2)n1,4.88%
11,Brc1ccccc1OCCOCCOc1cccc2cccnc12,-18.3%
12,Cc1[nH]nc2c1C(C(C)c1ccccc1)C(C#N)=C(N)O2 (stereo not drawn),2.3%
13,CC(C)(C)n1ncc2c(=O)n(CC(=O)NCCc3ccccc3)cnc21,1.39%
14,Cc1ccc(NC(=O)c2ccc(OC(=O)COc3cccc(Cl)c3)cc2)cc1,18%
15,Cc1ccc(C)n1-c1ncc(Br)cn1,6.58%
16,CSCC[C@H](NC(=O)NCc1ccc(F)cc1)C(=O)O,0.717%
17,CCc1cc2c(N3CCN(C)CC3)ncnc2s1.Cl,-29%
18,CCOC(=O)N1CCN(C(c2ccccc2)c2sc3nc(C)nn3c2O)CC1 (stereo not drawn),-5.56%
19,CCOC(=O)c1sc(N(Cc2ccccc2)C(=O)COC(=O)c2ccc(O)cc2)nc1C,17.7%
20,C/C=C\C=C/C(=O)Nc1cccc(C2=NOC3(C2)C[C@@H](C(N)=O)N(C(=O)c2ccccc2)C3)c1 (stereo partly drawn),11.6%
21,O=S1(=O)CCC(NC(=S)N2CCOCC2)C1 (stereo not drawn),7.65%

row,Structure (SMILES),"hERG current change (%, negative = inhibition) at 10uM"
1,O=C(c1ccccc1)c1ccccc1N=Cc1c(O)[nH]c(=O)[nH]c1=O,16.9%
2,C/C(CC(=O)N1CCN(C=O)CC1)=N\NC(=O)c1ccc(Br)cc1,9.05%
3,O=C(CC(=O)N/N=C/c1ccc(C(=O)O)cc1)NCCc1ccccc1,22.9%
4,COCCOc1nc2c(c(=O)n(C)c(=O)n2C)n1Cc1cccc(OC)c1,-12.8%
5,CC(=O)Nc1ccc(NC(=O)Cn2cnc3c(cnn3C(C)(C)C)c2=O)cc1,9.43%
6,COc1cc(/C=C(\C#N)C(N)=O)ccc1OS(=O)(=O)c1ccc(C)cc1,-37.8%
7,CC(C)NC(=O)COC(=O)/C=C/c1ccco1,30.8%
8,CCO[C@H]1OC(C(=O)NCc2nc3ccccc3[nH]2)=C[C@@H](c2cn(C(C)=O)c3ccccc23)[C@@H]1CCCO,-49.7%
9,Cc1nn(-c2ccc(F)cc2)c(-n2cccc2)c1C(=O)N1CCN(C(=O)c2ccco2)CC1,-25.2%
10,O=C(c1ccco1)N1N=C(c2ccc(Cl)cc2)CC1c1ccco1 (stereo not drawn),15%
11,COc1ccccc1-c1c(C)nn2c(NCCN3CCCC3)cc(C)nc12,-5.5%
12,COc1cc(/C=N/NP(=S)(c2ccccc2)c2ccccc2)ccc1O,-6.45%
13,COc1cc(/C=C/C(=O)O)cc(S(=O)(=O)NCc2ccc3c(c2)OCO3)c1OC,20.4%
14,Nc1ncc2[nH]cnc2n1,13.4%
15,CC(C)[C@H](NC(=O)N1CC(=O)Nc2ccccc21)C(=O)N[C@H](C(=O)O)c1ccccc1,12.5%
16,O=C(Nc1ccncc1)c1ccc(S(=O)(=O)Nc2ccccc2)cc1,1.96%
17,O=C(COc1ccc(F)cc1F)N1CCCCCCC1,13.5%
18,Cc1c(C(=O)NCCN2CCCC(O)C2)oc2c(F)cccc12 (stereo not drawn),-1.78%
19,CCN(Cc1nc(-c2ccc(OC)cc2)no1)C(=O)c1ccc2c(c1)OCO2,-30.7%
20,Cc1cccc(C(=O)NCCC(=O)NCc2ccccc2Cl)c1,-10.6%
21,O=C(CN1CCN(C(=O)C2CC2)CC1)Nc1cc(C(F)(F)F)cc(C(F)(F)F)c1,-54.4%
